Among all 48,000 compounds or so, about 550 (1.1%) were called active. Roughly 4% stayed inconclusive and do not appear here. Cut-off read from the data, not from the text of the source: active = potency below about 15 µM; inconclusive = mostly about 16 µM to 33 µM; inactive = weaker than that. This is one part of the list.
What follows are compounds tested against Lysosomal acid glucosylceramidase (Homo sapiens) (UniProt P04062) (assay: Glucocerebrosidase). Conditions: purified enzyme, resorufin glucoside fluorescence (screen aimed at inhibitors), 20 min.
In short: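 Compounds titrated against 0.2 nM normal enzyme, 30 uM resorufin beta-D-glucopyranoside substrate, citrate/phosphate buffer with taurocholate and tween-20, pH 5.9. Reaction ran 20 min at room temperature; fluorescence (Ex 548/Em 600) gave AC50.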
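Note: the screen sought inhibitors.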
Potency is the fitted concentration of half-maximal effect.

UniProt P04062, sequence (P04062 whole entry, looked up): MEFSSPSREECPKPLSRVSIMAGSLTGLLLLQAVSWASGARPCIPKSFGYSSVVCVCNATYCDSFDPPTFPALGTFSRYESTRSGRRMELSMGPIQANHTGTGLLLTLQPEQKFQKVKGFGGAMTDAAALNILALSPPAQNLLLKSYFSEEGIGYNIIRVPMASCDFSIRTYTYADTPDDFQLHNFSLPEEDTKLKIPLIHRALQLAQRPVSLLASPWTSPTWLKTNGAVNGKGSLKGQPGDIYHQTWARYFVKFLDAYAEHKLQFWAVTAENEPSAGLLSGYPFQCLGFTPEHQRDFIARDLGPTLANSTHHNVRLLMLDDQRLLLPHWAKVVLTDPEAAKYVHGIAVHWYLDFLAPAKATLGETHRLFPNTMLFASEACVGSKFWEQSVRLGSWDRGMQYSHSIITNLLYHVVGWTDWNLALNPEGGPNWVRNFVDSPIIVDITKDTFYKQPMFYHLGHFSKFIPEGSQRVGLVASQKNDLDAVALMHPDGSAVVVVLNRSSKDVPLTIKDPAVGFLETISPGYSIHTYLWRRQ

Potency, inactive:
Cc1occc1-c1nnc(SCC(=O)N2CCc3ccccc32)o1 > 76.9 µM
COc1ccccc1CN(C)C(=O)C1COc2ccccc2O1 (stereo unspecified) > 76.9 µM
COc1ccc(Cl)cc1N(CC(=O)Nc1ccccc1SC)S(C)(=O)=O > 76.9 µM
COc1ccc(N2C(=O)CC(NC3CC3)C2=O)cc1 (stereo unspecified) > 76.9 µM
COc1cccc(CNn2cnnc2)c1OCc1ccccc1F > 76.9 µM
Cn1c(N)c(C(=O)c2cc(-c3ccccn3)nc3ccccc23)c(=O)[nH]c1=O > 76.9 µM
COc1ccc(CNC(=O)Cn2nc(C(F)(F)F)c3c2CCC3)cc1 > 76.9 µM
O=C(CN1CCN(c2ccccc2)CC1)Nc1ccc(-n2cnnn2)cc1 > 76.9 µM
COc1ccc(-c2nc(C#N)c(NC(C)c3ccccc3)o2)cc1OC (stereo unspecified) > 76.9 µM
Cc1ccc(CCNC(=O)c2nnn(-c3cccc(C)c3)c2N)cc1 > 76.9 µM
CSc1nnc(-c2ccc(S(=O)(=O)N3CCCC3)cc2)n1C > 76.9 µM
COc1ccc(CCC(C(O)C(F)(F)F)S(=O)c2ccccc2)cc1 (stereo unspecified) > 76.9 µM
Cc1cc(C)cc(NC(=O)CSc2nnc(-c3ccc(S(=O)(=O)N4CCCC4)cc3)o2)c1 > 76.9 µM
COc1ccc(C(=O)O)cc1S(=O)(=O)NCCCN1CCCC1=O > 76.9 µM
Cc1ccc(SCC(=O)NCc2ccco2)cc1 > 76.9 µM
O=C(c1cccnc1Nc1ccc2c(c1)CCC2)N1CCOCC1 > 76.9 µM
Cc1noc(C)c1COC(=O)C1CC(O)CN1S(=O)(=O)c1ccc(Cl)cc1 (stereo unspecified) > 76.9 µM
O=C(O)COc1cccc2nsnc12 > 76.9 µM
CSc1ccc(Cl)c(C(=O)NCC(C)C)c1 > 76.9 µM
Cc1ccc(-n2c(SCC(=O)OC(C)C)nnc2-c2ccncc2)cc1 > 76.9 µM
Cc1ccc(CNc2nc3ccccc3s2)s1
COc1ccc(S(=O)(=O)Nc2cccc(Cl)c2)cc1OC > 76.9 µM
N#C/C(C(=O)c1ccccc1)=C1/SC=C(N)N1c1ccccc1 > 76.9 µM
Cc1oc2ccccc2c1-c1cn2c(n1)SCC2 > 76.9 µM
O=S(=O)(NCCOc1cccc2cccnc12)c1ccc(F)cc1 > 76.9 µM
CCn1c(CNC(=O)Cc2ccc(OC)cc2)nnc1SCC(=O)Nc1nccs1 > 76.9 µM

Source: PubChem BioAssay AID360 (National Center for Advancing Translational Sciences (NCATS), 2006)
